Reference: the supplement of paper PMC8728848
The other results are listed elsewhere or left out.

How the values were obtained:
Test in all cases: glycan array binding signal (z-score within array); higher = stronger binding
Details in all cases: glycan notation: IUPAC condensed, linker removed
[1] = target: Neu5Gc(a2-8)Neu5Gc(a2-3)Gal(b1-4)GlcNAc(b1-3)Gal(b1-4)GlcNAc
Summary of the method: (§1)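 The Consortium for Functional Glycomics database supplied 3228 glycan arrays, of which those lacking an available protein sequence were dropped. The binding signal, a within-array Z-score, was averaged across arrays of the same protein sequence and across linkers. Negative scores can be read as non-binding.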

[2] = target: Neu5Gc(a2-8)Neu5Gc(a2-6)Gal(b1-4)GlcNAc
Summary of the method: as §1

[3] = target: Neu5Gc(b2-6)Gal(b1-4)GlcNAc
Summary of the method: as §1

B1: CFEM-PPl (Pichia pastoris), F2QPV1 (protein)
chain: AVATPPACLLACAAEVVKESSDCDALNNIQCICENEGSAIHACLESTCPDGLSSTALQSFEDVCESVGTEANLDE
With B1 the “glycan array binding signal (z-score)” value [1] was -0.3, the “glycan array binding signal (z-score)” value [2] was -0.24 and the “glycan array binding signal (z-score)” value [3] was -0.264.
